Out of some 270,000 compounds screened, about 5,800 (2.1%) were called active. The shares of active, inactive and inconclusive entries below differ from those in the screen. The call rests on the fitted dose curve; in most records, active means well fitted inhibition curve with a large enough effect; inconclusive means small, poorly fitted or top-dose-only effect; inactive means flat fitted curve, though single readings scatter. A potency beside an inconclusive call is a rough fit, not a confirmed value.
target: Microtubule-associated protein tau (Homo sapiens) (UniProt P10636); test: qHTS for Inhibitors of Tau Fibril Formation, Thioflavin T Binding; conditions: recombinant tau K18 P301L, heparin-induced fibrillization, ThT fluorescence; series mostly up to 57.4 µM; further: nearly all actives have a fitted effect of over 55% in size
Procedure, shortened: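 Using a mix of unlabeled (15 uM) and Alexa 594-labeled (0.24 uM) tau K18 P301L, heparin-triggered fibrillization over 6 hr at 37 C was scored by ThT fluorescence.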
On the % scale 0 is the no-effect control and ±100 the full control effect; potency means the concentration at half of the fitted maximal effect; tags describe the fitted curve by direction and shape.

Chain of UniProt P10636 (P10636 whole entry, looked up): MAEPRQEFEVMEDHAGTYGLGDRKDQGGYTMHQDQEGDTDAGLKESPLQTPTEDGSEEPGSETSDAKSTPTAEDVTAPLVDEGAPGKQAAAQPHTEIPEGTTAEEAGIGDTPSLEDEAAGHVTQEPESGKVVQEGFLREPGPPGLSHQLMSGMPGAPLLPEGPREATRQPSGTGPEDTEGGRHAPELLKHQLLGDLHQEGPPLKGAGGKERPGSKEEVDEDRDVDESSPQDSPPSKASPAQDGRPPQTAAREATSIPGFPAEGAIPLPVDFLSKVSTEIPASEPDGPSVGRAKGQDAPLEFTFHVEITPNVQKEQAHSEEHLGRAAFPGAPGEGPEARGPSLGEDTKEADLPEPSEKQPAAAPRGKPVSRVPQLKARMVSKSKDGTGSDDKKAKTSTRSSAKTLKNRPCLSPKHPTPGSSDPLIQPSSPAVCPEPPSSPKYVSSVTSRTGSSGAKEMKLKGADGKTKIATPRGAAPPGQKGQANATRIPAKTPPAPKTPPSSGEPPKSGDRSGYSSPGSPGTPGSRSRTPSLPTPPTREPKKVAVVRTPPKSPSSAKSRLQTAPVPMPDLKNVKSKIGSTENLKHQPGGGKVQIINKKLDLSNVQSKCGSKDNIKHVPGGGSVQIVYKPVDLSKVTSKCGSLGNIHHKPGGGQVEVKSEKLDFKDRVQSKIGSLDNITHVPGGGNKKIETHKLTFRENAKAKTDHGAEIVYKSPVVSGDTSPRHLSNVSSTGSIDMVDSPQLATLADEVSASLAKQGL

SMILES	Potency	activity, negative = inhibition
O=C(COC(=O)Cc1ccccc1F)Nc1ccc(Cl)cn1	inconclusive: 31.6 µM [inhibitor, partial curve, poor fit]	–
O=C(c1cc(Br)c(Br)s1)N1CCN(C/C=C/c2ccccc2)CC1	inconclusive: 15.8 µM [inhibitor, single point]	–
COC(=O)C1=C(C(=O)OC)[C@@H]2N(Cc3ccccc3)c3ccccc3[C@@]23C[C@@H](C(=O)OC)N(S(=O)(=O)c2ccc(C#N)cc2)C3=N1	–	inactive: -1.78% [at 11.5 µM]
CC(C)COC(=O)/C(C#N)=C\c1ccc(-c2ccccc2Cl)o1	inconclusive: 0.178 µM [inhibitor, full curve, poor fit]	–
CCOc1ccc(OCC)c(NC(=O)CN2CCN(c3cccc(C)c3)C(C)C2)c1 (stereo not given)	inconclusive: 5.62 µM [inhibitor, partial curve]	–
COC(=O)Cn1c(O)c(N=NC(=O)c2ccc3c(c2)OCO3)c2ccccc21	inconclusive: 11.2 µM [inhibitor, partial curve]	–
COc1ccc(NC(=O)CSc2cn(CC(=O)N3CCOCC3)c3ccccc23)cc1OC	inconclusive: 31.6 µM [inhibitor, single point]	–
Cc1ccc(-c2nn(-c3ccccc3)cc2C(=O)Nc2ccc(C)c(S(=O)(=O)N3CCOCC3)c2)cc1	inactive	–
COc1cccc(N2CCN(C(=O)c3ccc4c(=O)n(CCc5ccccc5)c(=O)[nH]c4c3)CC2)c1	inactive	–
COc1ccc(/C=N/NC(=S)SC)cc1OC	inconclusive: 7.08 µM [inhibitor, partial curve]	–
O=C(CSc1nc(-c2ccco2)cc(C(F)(F)F)n1)N1CCc2ccccc2C1	inconclusive: 14.1 µM [inhibitor, partial curve]	–
C[C@@]1(C(=O)O)NCCc2cc(O)c(O)cc21	active: 25.1 µM	–
CCOC(=O)c1ccc(Nc2cc(C)nc(C)c2C(=O)OCC)cc1	inactive	–
O=[N+]([O-])c1ccc(-c2nc(-c3ccncc3)no2)cc1	inconclusive: 3.16 µM [inhibitor, partial curve]	–
Cc1nc(C)c(-c2csc(Nc3ccc(F)cc3)n2)s1	inconclusive: 14.1 µM [inhibitor, partial curve]	–
Cc1cc2cc(CCNC(=O)C(=O)c3c[nH]c4ccccc34)c(=O)[nH]c2cc1C	inconclusive: 0.708 µM [inhibitor, full curve]	–
Cc1cc2ccccc2n1CCNC(=O)C(C)Oc1ccccc1 (stereo not given)	inconclusive: 20 µM [inhibitor, partial curve]	–
Cc1ccc2c(=O)cc(C(=O)Nc3nnc(CC(C)C)s3)oc2c1C	inconclusive: 15.8 µM [inhibitor, partial curve]	–
CCOC(=O)c1sc(NC(=O)c2ccc(C)o2)nc1C	inactive	–
Cn1c(=O)[nH]c(=O)c2c1nc(N1CCCCCC1)n2Cc1cccc2ccccc12	inactive	–
COCCNc1ncnc2c1cnn2-c1ccc(Cl)cc1	inactive	–
Nc1c(C(=O)c2cccs2)oc2ccccc12	inconclusive: 10 µM [inhibitor, partial curve]	–
CCn1ccc2cc(S(=O)(=O)N3CCCN(C(=O)Nc4ccccc4C(F)(F)F)CC3)ccc21	inactive	–
COC(=O)/C(=C/c1ccco1)NC(=O)c1ccc(Br)o1	inactive	–

SMILES	Potency	activity, negative = inhibition
CCOC(=O)C1=C(C)OC(N)=C(C#N)C1c1ccc(C)s1 (stereo not given)	inactive	–
CCOC(=O)c1ccc(N2Cc3ccccc3C2)cc1O	inconclusive: 1.58 µM [inhibitor, full curve]	–
CC(C)(CC(=O)O)CC(=O)Nc1ccccc1Oc1ccccc1	inactive	–
CCc1c(C(=O)Nc2ccc(OC)c(Cl)c2)[nH]c(C)c1C(C)=O	inconclusive: 8.91 µM [inhibitor, full curve]	–
NC(=O)c1ccsc1NC(=O)c1ccc(N2CCCC2=O)cc1	inconclusive: 10 µM [inhibitor, partial curve]	–
Cc1cccc(/C=N/Nc2nncc3ccccc23)c1	inconclusive: 12.6 µM [inhibitor, partial curve]	–
CCOc1cc2[nH]c(=S)n(CCN3CCCCC3C)c(=O)c2cc1OCC (stereo not given)	inconclusive: 15.8 µM [inhibitor, partial curve]	–
Cn1ccnc1SCC(=O)c1cccc(Br)c1	inconclusive: 7.08 µM [inhibitor, partial curve]	–
COc1ccccc1NC(=O)Nc1ccc(CC#N)cc1	inactive	–
COc1ccc2c(c1)Cc1sc(NC(=O)c3ccccc3Br)nc1-2	inconclusive: 3.98 µM [inhibitor, full curve]	–
CCOC(=O)c1c(/N=C/N(C)C)sc(/C=N/Nc2ccccc2)c1-c1ccc(Cl)cc1	inconclusive: 31.6 µM [inhibitor, single point]	–
O=C(N/N=C/C(Br)=C/c1ccccc1)c1cccnc1	inconclusive: 44.7 µM [inhibitor, single point]	–
CCC1(c2ccccc2)NC(=S)N(c2cccc(C)c2C)N1 (stereo not given)	inactive	–
S=C(NN=C(C1CC1)C1CC1)Nc1ccccc1	inconclusive: 22.4 µM [inhibitor, single point]	–
Cc1ccc(C)n1-c1nnc(N2CCC(C(=O)Nc3ccccc3Br)CC2)s1	inactive	–
COc1ccc2cc(N=Cc3nc(-c4ccc(C)cc4)oc3O)cnc2c1	inconclusive: 5.62 µM [inhibitor, partial curve]	–
COc1cc2c(c(OC)c1OC)CCc1cnoc1-2	inconclusive: 39.8 µM [inhibitor, single point]	–
CC(=O)Nc1ccc(Nc2nc(C)nc3c2oc2ccccc23)cc1	inconclusive: 15.8 µM [inhibitor, partial curve]	–
O=C(CN1CCN(Cc2ccccc2)CC1)c1ccc(Br)cc1	inconclusive: 25.1 µM [inhibitor, partial curve]	–
COc1ccc(NC(=O)c2ccc(Br)o2)c([N+](=O)[O-])c1	inconclusive: 10 µM [inhibitor, partial curve]	–
CC[C@H]1C2=C3C(CC[C@H]4C(OCc5ccc(F)cc5C(F)(F)F)OC[C@](C)([C@@H]34)N(C(=O)OC(C)(C)C)C2)C(COC(C)=O)C1COC(C)=O (stereo not given in full)	inactive	–
COc1ccc(C(=O)NNC(=O)c2cc3cccc(OC)c3oc2=O)cc1	inconclusive: 28.2 µM [inhibitor, single point]	–
CN(CCCNC(=O)Cn1cccc1C(=O)c1ccccc1)C1CCCCC1	inactive	–
COc1ccc(-n2nc3ccccc3n2)cc1	inactive	–

SMILES	Potency	activity, negative = inhibition
CC(=O)c1ccc(C(=O)N(CCCN(C)C)c2nc3c(C)c(C)ccc3s2)cc1	inconclusive: 22.4 µM [inhibitor, single point]	–
Cc1cccc(N2CCN(C(=O)C3CCCCC3)CC2)c1C	inconclusive: 31.6 µM [inhibitor, single point]	–
CCOc1cccc(C(=O)Nc2c(C(=O)c3ccc(OC)cc3)oc3ccccc23)c1	inactive	–
COc1ccccc1CNc1cc(-c2ccccc2)nc2nncn12	inconclusive: 28.2 µM [inhibitor, single point]	–
Cc1cccc(OCC(=O)Nc2cc(C)c(C)cc2O)c1	inconclusive: 0.631 µM [inhibitor, full curve, poor fit]	–
CC(=O)c1cccc(CN2CCCC(CCC(=O)NCc3ccc(C)o3)C2)c1 (stereo not given)	inconclusive: 20 µM [inhibitor, single point]	–
Cc1ccc(OCCn2c(CNc3cccc(C)c3)nc3ccccc32)cc1	inconclusive: 14.1 µM [inhibitor, partial curve]	–
O=C(c1ccc(Cl)cc1)c1cnc(-c2ccc(Cl)cc2)s1	inconclusive: 5.01 µM [inhibitor, full curve]	–
C/C(CCN1CCCc2nc(C)c(C)cc21)=N\OC[C@@H](O)[C@@H]1O[C@@H]2OC(C)(C)O[C@@H]2[C@H]1O	–	inactive: -9.24% [at 11.5 µM]
CC1(C)CC(=O)/C(=C\c2cccc([N+](=O)[O-])c2)C(C)(C)N1	inconclusive: 12.6 µM [inhibitor, partial curve, poor fit]	–
Cc1ccc2nc(NC(=O)c3ccc(-c4nc5ccccc5s4)s3)sc2c1	inconclusive: 2 µM [inhibitor, full curve]	–
Cc1ccc(NC(=S)NC(NC(=O)c2ccco2)C(Cl)(Cl)Cl)cc1 (stereo not given)	inactive	–
Cc1cc(C)n2nc(SCCCC(=O)c3ccccc3)nc2n1	inactive	–
O=C(NCC1(N2CCOCC2)CCCCC1)c1cccc(S(=O)(=O)N2CCc3ccccc3C2)c1	inactive	–
Cc1cc(OCc2nnc(SC(C)C(=O)O)n2Cc2ccccc2)ccc1Cl (stereo not given)	inactive	–
O=C(NC1C(=O)NNC1c1ccccc1)c1ccccc1 (stereo not given)	inconclusive: 1.58 µM [inhibitor, full curve]	–
COc1cc(C=O)ccc1OCCSc1ccc(C)cc1	inconclusive: 25.1 µM [inhibitor, partial curve]	–
Cc1nc2ccn(Cc3cccs3)c(=O)c2cc1C(=O)N1CCN(c2ccc(F)cc2)CC1	inconclusive: 44.7 µM [inhibitor, single point]	–
Cc1ccc(NC(=O)c2sc(-n3nc(C)c(CCC(C)C)c3C)nc2C)cc1C	inconclusive: 3.98 µM [inhibitor, partial curve]	–
Cc1cnc(C(=O)Nc2ccccc2-c2ccc(C)o2)cn1	inconclusive: 39.8 µM [inhibitor, single point]	–
Cc1ccc(/C=C(\C#N)C(=O)Nc2ccccn2)o1	inconclusive: 35.5 µM [inhibitor, single point]	–
CC(C)N(c1ccccc1)c1ccc(NC(=O)CCl)cc1	inconclusive: 35.5 µM [inhibitor, partial curve]	–

From PubChem BioAssay AID1460 (National Center for Advancing Translational Sciences (NCATS), 2008)
